Key:
YUMM1.7 tumors = experiment: YUMM1.7 melanoma tumor graft in C57BL/6 mice; format: in vivo, mouse; conditions: 10 mg/kg i.p. every 5 days starting Day 12
Procedure: (§1) Tumor growth was measured by calipers, and size was expressed as one half of the product of perpendicular length by square width in cubic millimeters. For antibody treatment, control IgG3 antibody and anti-DKK2 antibody were diluted in PBS, and 100 μl was injected i.p. at intervals indicated in the Figures. For survival tests, mice are euthanized when the tumor size exceeding 1800 mm3 for MC38 and 1200 mm3 for YUMM1.7.

MC38 tumors = experiment: MC38 syngeneic tumor graft in C57BL mice; format: in vivo, mouse
Procedure: as §1
MC38 cells, which were derived from mouse colon carcinoma in a C57BL mouse, progress very fast when grafted to immunocompetent WT C57BL mice. Thus, this allograft model, also known as a syngeneic model, can be used to test the therapeutic potential of the anti-DKK2 antibody 5F8 in vivo with a functional host immune system. In one study, C57BL mice (10 week old female mice, n=5 per group) were grafted with MC38 cells via the subcutaneous (s.c.) route. Fourteen days later, the mice were treated every 3 days via the intraperitoneal (i.p.) route with mouse IgG or 5F8 (8 mg/kg). Tumors were collected on Day 22 and weighed.

Recombinant mouse DKK1 = molecular target: T1, Recombinant mouse DKK1 (Mus musculus, UniProt O54908); experiment: ELISA, 5F8 binding to DKK1; conditions: DKK1 20 ng/ml coated
T1 construct: purchased R&D
T1 sequence (O54908 32-272): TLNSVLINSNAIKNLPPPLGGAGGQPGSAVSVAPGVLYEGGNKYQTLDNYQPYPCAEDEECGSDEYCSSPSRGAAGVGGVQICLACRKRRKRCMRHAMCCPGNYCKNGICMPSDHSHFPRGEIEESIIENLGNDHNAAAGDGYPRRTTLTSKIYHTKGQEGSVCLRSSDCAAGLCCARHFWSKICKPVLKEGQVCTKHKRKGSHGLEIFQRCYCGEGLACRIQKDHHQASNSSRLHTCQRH
Procedure: Recombinant mouse DKK2 or DKK1 protein (20 ng/ml, R&D) in a blocking buffer (1% BSA in PBS) was incubated in a 384-well microtiter plate for overnight at 4° C. The plate was washed with PBS twice and incubated with the blocking buffer for one hour at room temperature. The plate was then incubated with the anti-DKK2 5F8 antibody in the blocking buffer for 1 hour at room temperature. After repeatedly washing, the plate was incubated with an HRP-conjugated secondary antibody for 1 hour at room temperature. A chemiluminance substrate (Thermo Fisher 37070) was added to the plate, and the plate was read by an EnVision plate reader.

B1: 5F8: Mouse monoclonal antibody to DKK2, raised against a synthetic peptide of human DKK2 (SEQ ID NO: 21); chains SEQ ID NOs: 22, 23 (antibody, V domains shown)
VH: GAELVRPGASVKLSCKASGYSFTNYWMNWVKQRPGQGLEWIGMIHPSDSETRLNQKFKDKATLTVDKSSSTAYMQLSSPTSEDSAVYYCAREGRLGLRSYAMDYWGQGTSVTVSS
VL: PSSLAMSVGQKVTMSCKSSQSLLNSSNQKNYLAWYQQKPGQSPKLLVYFASTRESGVPDRFVGSGSGTDFTLTITSVQAEDLADYFCQQHYITPLTFGAGTKLE
performance compared with PD-1 blockade, YUMM1.7 model (YUMM1.7 tumors): a general trend of better performance than PD-1 blockade | survival of tumor-bearing mice, YUMM1.7 model (YUMM1.7 tumors): extended the survival of tumor-bearing mice | tumor progression, YUMM1.7 model (YUMM1.7 tumors): significantly impeded tumor progression | anti-tumor effect, MC38 model, DKK2/PD-1 blockade study (MC38 tumors; 10 mg/kg i.p. every 5 days starting Day 18): tumor suppressive effects | tumorigenic growth of grafted MC38 cells (tumor volume and weight) (MC38 tumors; C57BL, i.p. every 3 days from Day 14, vs IgG3): significantly inhibited the tumorigenic growth | tumor progression (tumor volume and weight), short study (MC38 tumors; MC38, 5F8 10 mg/kg i.p. Days 9 and 12, collected Day 14, vs IgG): reduced tumor volume and weight | tumor suppressive effect after depletion of NK or CD8+ cells (MC38 tumors; MC38, anti-NK1.1 or anti-CD8a 300 ug/mouse, 5F8 10 mg/kg every three days): largely diminished the tumor suppressive effect of 5F8 | survival (MC38 tumors; MC38 in C57BL, 5F8 10 mg/kg every three days i.p., n=10): improved survival rates | binding to DKK1 (ELISA) (Recombinant mouse DKK1): not to DKK1
